Several values for one entry are separate records, joined by “and”; a condition that tells them apart may be missing. Equal values may be shown once. Where a name gives a salt, the structure may show the parent alone. Screen size: about 5,800 compounds; about 620 (11%) showed activity.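 The calls were made as follows: active = score above a cut-off or among the top three wells of a plate; in these data no inactive exceeds 0.85.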 Only a part is listed here, and it is no random draw.

The experiment has as its system primary human hepatic stellate cells (donor 1). Put plainly: scaled lipid accumulation score (0 = DMSO-like, 1 = nortriptyline-like); higher = stronger HSC inactivation (lipid re-accumulation), active = hit call of the paper. The following applies: 48 h. On the procedure: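 Primary lipid accumulation screen in primary human hepatic stellate cell myofibroblasts (donor 1, passage 8) in 384-well plates. 100 nL of library compound was pin-transferred into 30 µL medium in duplicate, and cells were treated for 48 h. The 'Scaled' score combines distance from plate baseline, toxicity and reproducibility penalties, and is normalised to nortriptyline (positive) and DMSO (negative) controls on each plate. A hit is defined as scaled >0.85 or among the top 3 wells per plate.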

The mark [1] stands for this setting: library stock concentration: 1 mM.
Setting [2] is: library stock concentration: 10 mM.
Where [3] appears, read: library stock concentration: 4.9 mM.
Where [4] appears, read: library stock concentration: 3.33 mM.

With `CCCCC/C=C\C/C=C\C/C=C\C/C=C\CCCC(=O)S[C@H](COCCCCCCCCCCCCCCCC)COP(=O)([O-])OCC[N+](C)(C)C` [Arachidonoyl thio-PC], the “scaled lipid accumulation score” value under setting [1] was inactive: ≤ 0.
Turning to `CCCCCCCCCCC/C=C\C(C)(C)/C=C\CCCC(=O)O` [7,7-Dimethyl-(5Z,8Z)-eicosadienoic acid], under setting [2], the “scaled lipid accumulation score” value was inactive: 0.226.
Same read-out and setting: under `CCCCCCCCCCCCC[N+](C)(C)Cc1ccccc1` [Benzalkonium chloride] stands inactive: 0.182.
In the case of `Cn1c(-c2ccc3c(c2)OCO3)cc(=O)c2ccccc21` [Graveoline], the “scaled lipid accumulation score” value is inactive: ≤ 0.
For the compound `CCCSc1ccc2nc(NC(=O)OC)[nH]c2c1` [Albendazole], under setting [2], the “scaled lipid accumulation score” value is active: 0.892.
For `CCOc1ccccc1OCCN[C@H](C)Cc1ccc(OC)c(S(N)(=O)=O)c1` [Tamsulosin HCl], the “scaled lipid accumulation score” value under setting [3] was inactive: ≤ 0.
Take `CCn1cc(C(=O)O)c(=O)c2cnc(N3CCCC3)nc21` [Piromidic acid]: the “scaled lipid accumulation score” value is inactive: ≤ 0. For the same compound, the “scaled lipid accumulation score” value under setting [2] was inactive: ≤ 0.
With `O=S(=O)(O)CCS` [Mesna], the “scaled lipid accumulation score” value was inactive: ≤ 0 under setting [4], inactive: ≤ 0 under setting [2] and inactive: ≤ 0 (library stock concentration: 12.2 mM).
In the case of `CC(C)Nc1ncccn1`, the “scaled lipid accumulation score” value under setting [2] was inactive: ≤ 0.
For the compound `CC(C)(C)NC[C@H](O)c1ccc(O)c(CO)c1`, the “scaled lipid accumulation score” value under setting [2] is inactive: ≤ 0.
As to `C#CCN1C(C)=C(C(=O)OC)C(c2cccc([N+](=O)[O-])c2)C(C(=O)OCC)=C1C` (stereo unspecified), the “scaled lipid accumulation score” value under setting [2] was inactive: 0.007.
On to `CCCCCCCCCCCCCCCCOC[C@H](CO)SC(C)=O` [2-thio-Acetyl MAGE], for which the “scaled lipid accumulation score” value under setting [1] is inactive: ≤ 0.
In the case of `CC(=O)OCC(=O)[C@@]12N=C(C)O[C@@H]1C[C@H]1[C@@H]3CCC4=CC(=O)C=C[C@]4(C)[C@H]3[C@@H](O)C[C@@]12C` [Deflazacort], the “scaled lipid accumulation score” value was inactive: ≤ 0 under setting [4] and inactive: 0.054 under setting [2].
As to `CC(=O)OCC(=O)[C@@]12N=C(C)O[C@@H]1C[C@H]1[C@@H]3CCC4=CC(=O)C=C[C@]4(C)[C@H]3[C@@H](O)C[C@@]12C`, under setting [2], the “scaled lipid accumulation score” value is inactive: ≤ 0.
Consider `O=C(O)Cc1sc(-c2ccccc2)nc1-c1ccc(Cl)cc1` [Fentiazac], for which the “scaled lipid accumulation score” value (library stock concentration: 6.1 mM) was inactive: 0.006.
With `Cl.Cl.Clc1ccccc1CNC[C@H]1CC[C@H](CNCc2ccccc2Cl)CC1`, under setting [2], the “scaled lipid accumulation score” value is active: 1.48.
In the case of `Cn1nccc1Nc1nccc(-c2ccn([C@H](CO)c3ccc(Cl)c(F)c3)c(=O)c2)n1`, the “scaled lipid accumulation score” value by setting is: (library stock concentration: 80 uM) inactive: ≤ 0; (library stock concentration: 400 uM) inactive: ≤ 0; (library stock concentration: 2 mM) inactive: ≤ 0; under setting [2], inactive: ≤ 0.
On to `N=C(N)NCCC[C@H](N)C(=O)O` [L-Arginine], for which, under setting [2], the “scaled lipid accumulation score” value is inactive: 0.012.
The same measure, in the same setting: the value for `CNCCC(Oc1ccc(C(F)(F)F)cc1)c1ccccc1` (stereo unspecified) [Fluoxetine hydrochloride] was inactive: 0.09; that for `CNCCC(Oc1ccc(C(F)(F)F)cc1)c1ccccc1` (stereo unspecified) [Fluoxetine] was inactive: 0.637.
The same measure, in the same setting: under `Cc1nc2n(c(=O)c1CCN1CCC(c3noc4cc(F)ccc34)CC1)CCCC2` stands inactive: ≤ 0.
Turning to `Cc1nc2n(c(=O)c1CCN1CCC(c3noc4cc(F)ccc34)CC1)CCCC2` [Risperidone], the “scaled lipid accumulation score” value is inactive: ≤ 0. Moreover, under setting [4], the “scaled lipid accumulation score” value is inactive: ≤ 0. In addition, the “scaled lipid accumulation score” value under setting [3] is inactive: 0.026. Further, the “scaled lipid accumulation score” value under setting [2] is inactive: 0.213.
On to `CC(=O)Nc1ccc(CC(=O)O)cc1`, for which the “scaled lipid accumulation score” value under setting [2] is inactive: ≤ 0.
Same read-out and setting: under `C[C@@H](CN1CC(=O)NC(=O)C1)N1CC(=O)NC(=O)C1` [Dexrazoxane hydrochloride] stands inactive: 0.02.
Regarding `C[C@@H](CN1CC(=O)NC(=O)C1)N1CC(=O)NC(=O)C1` [Dexrazoxane HCl (ICRF-187, ADR-529)], the “scaled lipid accumulation score” value was inactive: ≤ 0 under setting [4] and inactive: ≤ 0 under setting [2].
Take `CN1CCCC(n2nc(Cc3ccc(Cl)cc3)c3ccccc3c2=O)CC1.Cl` (stereo unspecified) [Azelastine HCl]: the “scaled lipid accumulation score” value under setting [2] was active: 1.09.
Turning to `CC(C)Oc1ccc2c(=O)c3cc(C(=O)O)ccc3oc2c1`, the “scaled lipid accumulation score” value reads like this: under setting [1], inactive: ≤ 0; under setting [2], inactive: ≤ 0.
Consider `CCC(=O)O[C@]1(C(=O)CCl)[C@@H](C)C[C@H]2[C@@H]3C[C@H](F)C4=CC(=O)C=C[C@]4(C)[C@@]3(F)[C@@H](O)C[C@@]21C` [Halobetasol Propionate], for which the “scaled lipid accumulation score” value reads like this: under setting [4], inactive: ≤ 0; under setting [2], inactive: ≤ -0.001.
The matching figures for `CC(=O)N[C@H]1[C@H]([C@H](O)[C@H](O)CO)OC(C(=O)O)=C[C@@H]1NC(=N)N` [Zanamivir]: inactive: ≤ 0 and inactive: ≤ 0.
Take `CNCCC(Oc1ccc(C(F)(F)F)cc1)c1ccccc1.Cl` (stereo unspecified): the “scaled lipid accumulation score” value under setting [2] is active: 0.914.
Regarding `CCN1CC(CCN2CCOCC2)C(c2ccccc2)(c2ccccc2)C1=O` (stereo unspecified) [Doxapram HCl], the “scaled lipid accumulation score” value reads like this: under setting [4], inactive: ≤ 0; under setting [2], inactive: ≤ -0.001.
`CCN1CC(CCN2CCOCC2)C(c2ccccc2)(c2ccccc2)C1=O` (stereo unspecified): the “scaled lipid accumulation score” value (library stock concentration: 10.4 mM) is inactive: ≤ 0.
With `CCCCCCCCCCCCCCCCCCOC[C@@H](COP(=O)([O-])OCC[N+](C)(C)C)OC` [1-Octadecyl-2-methylglycero-3 PC], under setting [1], the “scaled lipid accumulation score” value is inactive: ≤ -0.021.
Regarding `Cc1c(C(=O)NN2CCOCC2)nn(-c2ccc(Cl)cc2Cl)c1-c1ccc(I)cc1`, the “scaled lipid accumulation score” value under setting [2] was inactive: 0.185.
Consider `C[C@]12CC[C@@H]3c4cc(O)c(O)cc4CC[C@H]3[C@@H]1CC[C@@H]2O` [2-Hydroxyestradiol], for which, under setting [1], the “scaled lipid accumulation score” value is inactive: ≤ 0.
As for `N[C@@H](C(=O)N[C@@H]1C(=O)N2C(C(=O)O)=C(CSc3cn[nH]n3)CS[C@H]12)c1ccc(O)cc1`, the “scaled lipid accumulation score” value under setting [2] was inactive: ≤ 0.
Still for that read-out and setting: under `COc1ccc(C(=O)NCc2ccc(OCCN(C)C)cc2)cc1OC` stands inactive: 0.061 and inactive: 0.313.
Take `N[C@@H](C(=O)N[C@@H]1C(=O)N2C(C(=O)O)=C(Cl)CS[C@H]12)c1ccccc1` [Cefaclor]: the “scaled lipid accumulation score” value was inactive: ≤ 0. Also, the “scaled lipid accumulation score” value (library stock concentration: 5.4 mM) is inactive: ≤ 0. Besides, under setting [2], the “scaled lipid accumulation score” value was inactive: ≤ 0.
For the compound `N[C@@H](C(=O)N[C@@H]1C(=O)N2C(C(=O)O)=C(Cl)CS[C@H]12)c1ccccc1`, the “scaled lipid accumulation score” value under setting [2] is inactive: ≤ 0.
On the same count and under the same terms, the value for `O=C(O)CCC/C=C\C[C@@H]1CO[C@H](C(F)(F)F)O[C@@H]1c1ccccc1O` was inactive: ≤ 0.
Take `CC(Oc1ccccc1)C(=O)N[C@@H]1C(=O)N2[C@@H]1SC(C)(C)[C@@H]2C(=O)O` (stereo partly specified) [Phenethicillin potassium]: under “library stock concentration: 5 mM”, the “scaled lipid accumulation score” value was inactive: ≤ 0.
Take `CC(Oc1ccccc1)C(=O)N[C@@H]1C(=O)N2[C@@H]1SC(C)(C)[C@@H]2C(=O)O` (stereo partly specified) [Phenethicillin potassium salt]: the “scaled lipid accumulation score” value is inactive: 0.016.
With `OC[C@H]1O[C@@H](O[C@@H]2[C@@H](CO)OC(O)(CO)[C@H]2O)[C@H](O)[C@@H](O)[C@H]1O` (mixture of isomers) [Lactulose], the “scaled lipid accumulation score” value is inactive: 0.02 (library stock concentration: 5.8 mM) and inactive: 0.096 under setting [2].

Source of the values: the supplement of paper PMC9135407.
